The whole screen tested about 150,000 compounds, of which about 540 (0.36%) showed an effect of 50% or more. The list shows a part of the results.
These compounds were tested on Plasmodium falciparum (assay: Primary screen in NF54 nanoGlo assay, in single point, at 2uM, 72h; a lower Z score goes with more inhibition). Settings: timepoint 72 hour.
Type: functional, Erythrocyte
In the case of `Cc1cnc2c(c1)N(C(=O)Cn1cc(Br)cn1)CCO2`, the “% Inhibition” value is reported as -6% and the Z score is reported as 0.51.
In the case of `CC(C)[C@H](Cn1ccnn1)NS(=O)(=O)c1ccc2c(c1)CCCC2`, the “% Inhibition” value is reported as 10% and the Z score is reported as -1.29.
With `Cc1cc(C)c(-n2cccn2)c(CN2Cc3[nH]cnc3C[C@H]2C(=O)O)c1` the “% Inhibition” value was -4% and the Z score was 0.52.
With `C[C@@H](c1ccon1)N(C)C(=O)CCc1cccnc1` the “% Inhibition” value was 10% and the Z score was -1.62.
For `CC1CN(CC(=O)NCCC#N)CC(C)O1` (configuration not stated), the “% Inhibition” value was -5% and the Z score was 0.65.
`Cc1noc(C)c1S(=O)(=O)N1CC[C@H](Cc2nnc(-c3ccccc3)o2)C1` was tested, and the “% Inhibition” value was -5% and the Z score was 0.74.
`CC(O)CN1CCN(S(=O)(=O)c2ccco2)C(C)C1` (configuration not stated) was tested, and the “% Inhibition” value was 2% and the Z score was -0.29.
In the case of `Cc1ccccc1S(=O)(=O)N1CCOC[C@@H](CN(C)C)C1`, the “% Inhibition” value is reported as -7% and the Z score is reported as 0.89.
For `O=C(CCc1ccccc1)C(=O)N1CCCOCC1`, the “% Inhibition” value was 2% and the Z score was -0.4.
With `NS(=O)(=O)c1ccc(CCNC(=O)CCS(=O)(=O)c2ccc(Cl)cc2)cc1` the “% Inhibition” value was -27% and the Z score was 3.16.
In the case of `O=S1(=O)C[C@H](N2CCC3(CC2)OCCO3)[C@@H](S(=O)(=O)c2ccccc2)C1`, the “% Inhibition” value is reported as -4% and the Z score is reported as 0.54.
`FC(F)(F)c1nc(NC[C@H]2CCCO2)c2nc[nH]c2n1` was tested, and the “% Inhibition” value was -4% and the Z score was 0.73.
In the case of `Cc1ccc(S(=O)(=O)c2ncccc2CN2CCCC2)cc1`, the “% Inhibition” value is reported as -8% and the Z score is reported as 1.15.
`Cc1noc(C)c1S(=O)(=O)N1CC(c2ncc(C)n2CC2CC2)C1` was tested, and the “% Inhibition” value was -3% and the Z score was 0.33.
For `CC(C)(C)C[C@@H](CO)NC(=O)c1c(F)ccc(O)c1F`, the “% Inhibition” value was -3% and the Z score was 0.49.
For `c1nc(N2CCC[C@@H]2Cn2cncn2)c2cc[nH]c2n1`, the “% Inhibition” value was -1% and the Z score was 0.11.
With `O=C(C(Cc1c[nH]c2ccccc12)n1c(O)nc2ccccc2c1=O)N1CCCC1CO` (configuration not stated) the “% Inhibition” value was -9% and the Z score was 1.62.
`Cc1ccc(C2CC(C)CCN2S(=O)(=O)CCS(C)(=O)=O)o1` (configuration not stated) was tested, and the “% Inhibition” value was 3% and the Z score was -0.34.
In the case of `CN1C(=O)C[C@H](Nc2ccc(C(F)(F)F)cn2)C1=O`, the “% Inhibition” value is reported as 6% and the Z score is reported as -0.65.
In the case of `Cc1ccc(CNC(=O)c2nnc(-c3cccnc3)o2)cc1`, the “% Inhibition” value is reported as -1% and the Z score is reported as 0.12.
In the case of `O=C1COCC2(CCC2)N1Cc1ccccc1`, the “% Inhibition” value is reported as -15% and the Z score is reported as 1.91.
In the case of `CCOc1cccc2c1OC1(C)C(C(=O)Nc3ccc(C)cc3C)C2NC(=O)N1Cc1ccccc1` (configuration not stated), the “% Inhibition” value is reported as -3% and the Z score is reported as 0.31.
`C[C@]1(O)CCN(C(=O)Cc2ccc3c(c2)OCO3)C[C@@H]1O` was tested, and the “% Inhibition” value was -1% and the Z score was 0.18.
In the case of `CN(C)c1ncc(CN2CCC(C)(C)S(=O)(=O)CC2)n1C`, the “% Inhibition” value is reported as -20% and the Z score is reported as 1.65.
With `COCc1nc(C)c(CNC(=O)c2ncoc2C(C)C)s1` the “% Inhibition” value was -5% and the Z score was 0.48.
In the case of `CN(C)C(=NC[C@@H]1CC=CCC1)N(C)C`, the “% Inhibition” value is reported as -7% and the Z score is reported as 0.75.
In the case of `O=C(c1cccc2ccccc12)N1CC(n2nccn2)C1`, the “% Inhibition” value is reported as -6% and the Z score is reported as 0.71.
For `O=C(Nc1cccc(F)c1)N[C@@H](C1CCCC1)C(F)(F)F`, the “% Inhibition” value was -7% and the Z score was 1.06.
`CCOCC(=O)N[C@@H](C)c1nnc(N)s1` was tested, and the “% Inhibition” value was -10% and the Z score was 1.45.
In the case of `Cc1ccnc(CNC(=O)N2CCC[C@H](OCC3CC3)C2)c1`, the “% Inhibition” value is reported as -5% and the Z score is reported as 0.66.
`CCN1CCN(S(=O)(=O)c2c(C)sc(C)c2-c2cc(C)no2)CC1` was tested, and the “% Inhibition” value was -11% and the Z score was 1.85.
For `CN(C)C(=NCC(=O)Nc1ccccc1)N(C)C`, the “% Inhibition” value was -1% and the Z score was 0.2.
In the case of `Cc1nc(C2CC2)ncc1C(=O)N(CCc1ccccc1)C[C@H]1CCCN(C)C1`, the “% Inhibition” value is reported as 6% and the Z score is reported as -0.8.
With `COc1ccc(NC(=O)CCC(=O)OC2CCC(C)C(C)C2)cc1` (configuration not stated) the “% Inhibition” value was -12% and the Z score was 1.38.
For `CCn1nc(C)c(CN(CCc2ccccc2)C[C@H]2CCCN(C)C2)c1C`, the “% Inhibition” value was 2% and the Z score was -0.4.
With `CCC(=O)Nc1ccc2c(c1)cc(C(=O)NCc1ccccc1)n2Cc1cccc(F)c1` the “% Inhibition” value was 1% and the Z score was -0.1.
In the case of `O=C1c2ccccc2C(=O)N1c1nonc1N1C(=O)C2CCCCC2C1=O` (configuration not stated), the “% Inhibition” value is reported as 1% and the Z score is reported as -0.11.
In the case of `CC(C)(C)OC(=O)N/N=C(/COc1ccccc1)NC1CC1`, the “% Inhibition” value is reported as -15% and the Z score is reported as 1.69.
`CCCCn1c2ccccc2n2cc(-c3ccc4c(c3)OCO4)nc12` was tested, and the “% Inhibition” value was -9% and the Z score was 0.78.
For `CCN(CC)C(=O)Cn1cc(C(=O)NCCc2ccncc2)nn1`, the “% Inhibition” value was 7% and the Z score was -1.33.
With `Cc1c(-c2ccccc2)nn(C)c1NC(=O)N1CCC(F)(F)CC1` the “% Inhibition” value was -18% and the Z score was 1.81.
With `Cc1ccccc1CCC(=O)N1CC(n2ccnn2)C1` the “% Inhibition” value was 5% and the Z score was -0.57.
For `N#Cc1ccccc1CO[C@]1(C(=O)NC2CC2)CC(OCc2ccccc2F)[C@H](O)[C@H](O)C1` (some centres not stated), the “% Inhibition” value was -1% and the Z score was 0.12.
With `OCC1([C@H](NCc2ncccc2Cl)c2ccccc2)CC=CC1` the “% Inhibition” value was 0% and the Z score was -0.04.
In the case of `Oc1ccc2ccccc2c1-c1nc([C@H]2CCOC2)no1`, the “% Inhibition” value is reported as 7% and the Z score is reported as -0.99.
With `O=C(c1cnn2c(C(F)(F)F)cc(-c3ccco3)nc12)N1CCC[C@H]1c1ccccc1F` the “% Inhibition” value was -6% and the Z score was 1.17.
In the case of `CN(CCc1ccccn1)c1ncccc1CNc1ncccc1C#N`, the “% Inhibition” value is reported as 0% and the Z score is reported as 0.
In the case of `CCOc1ccc(-c2c[nH]c(-c3ccc(S(C)(=O)=O)cc3)n2)cc1`, the “% Inhibition” value is reported as -7% and the Z score is reported as 0.95.
In the case of `CCC(NC(=O)N1CCOC(c2ccsc2)C1)c1cccs1` (configuration not stated), the “% Inhibition” value is reported as -3% and the Z score is reported as 0.38.
For `COc1ccccc1N1CCN(C(=O)c2ncn(-c3ccc(C)cc3)n2)CC1`, the “% Inhibition” value was -7% and the Z score was 0.66.
`COC(=O)c1cc(-c2cccnc2)nc2c1c(C)nn2CCC#N` was tested, and the “% Inhibition” value was -1% and the Z score was 0.13.
In the case of `CCS(=O)(=O)CCNC(=O)c1cnc(C)s1`, the “% Inhibition” value is reported as -2% and the Z score is reported as 0.19.
For `CN1CC2(CCN(c3nccnc3N(C)C)CC2)C[C@@H](c2ccccc2)C1=O`, the “% Inhibition” value was -3% and the Z score was 0.38.
For `Cc1nc[nH]c1CN1C[C@H]2CC[C@@H](C1)N(Cc1ccc(-c3cc[nH]n3)o1)C2`, the “% Inhibition” value was -10% and the Z score was 1.66.
`O=C1NC[C@H]2O[C@H](CCOc3ccccc3C(=O)N3CCN(C4COC4)C[C@@H]13)CC[C@H]2n1cc(CN2CCOCC2)nn1` was tested, and the “% Inhibition” value was -1% and the Z score was 0.18.
With `CC[C@@H]1Oc2ccc(S(=O)(=O)N3CCN(C(=O)c4ccc(F)c(F)c4)CC3)cc2NC1=O` the “% Inhibition” value was -9% and the Z score was 0.86.
With `C[C@H](NCc1nccc(N)n1)c1cc2ccccc2o1` the “% Inhibition” value was -6% and the Z score was 0.65.
`Fc1cccc2nc(NCCc3nnc(C4CCOCC4)[nH]3)oc12` was tested, and the “% Inhibition” value was -11% and the Z score was 1.08.
In the case of `Cc1cc(-n2cncn2)ccc1C(=O)N1CCC2CN(C(=O)OC(C)(C)C)CC2C1` (configuration not stated), the “% Inhibition” value is reported as -17% and the Z score is reported as 1.94.
With `COc1ccccc1Nc1ncnc2sc(C)c(S(=O)(=O)N3CCCCC3)c12` the “% Inhibition” value was -5% and the Z score was 0.91.
`COc1ccc(OC)c(S(=O)(=O)N2CCOCCNC(=O)[C@H]3CCCC[C@H]32)c1` was tested, and the “% Inhibition” value was 2% and the Z score was -0.29.
For `Cc1c(N2CCOCC2)c(C)n(Cc2ccc(F)c(F)c2)c1C(=O)NC(C)(C)C`, the “% Inhibition” value was -5% and the Z score was 0.54.
With `COC(C)c1nc(CN2CCCC2C(O)C(F)(F)F)cs1` (configuration not stated) the “% Inhibition” value was -5% and the Z score was 0.44.
`CCC(=O)NCc1nc2c(n1C)CN(S(=O)(=O)c1cccc(F)c1)CC2` was tested, and the “% Inhibition” value was -9% and the Z score was 1.03.
For `CC(=O)c1ccc(Oc2nc(-c3ccccc3)cc(-c3ccccc3)n2)cc1`, the “% Inhibition” value was -3% and the Z score was 0.47.
For `CCc1cc(OC)ccc1CN(C)[C@H]1C[C@@H](OC)C1`, the “% Inhibition” value was -5% and the Z score was 1.01.
In the case of `Cc1noc(C)c1COc1cccc[n+]1[O-]`, the “% Inhibition” value is reported as 7% and the Z score is reported as -0.74.
`OCc1ccc(-c2nc(C3CC3)nn2-c2ccc(F)cc2F)o1` was tested, and the “% Inhibition” value was -6% and the Z score was 1.18.
In the case of `CC(C)CC(CNC1CC2CC1C1CCCC21)C(=O)O` (configuration not stated), the “% Inhibition” value is reported as -3% and the Z score is reported as 0.3.
In the case of `NS(=O)(=O)Cc1cccc(Cl)c1`, the “% Inhibition” value is reported as -21% and the Z score is reported as 2.7.
For `Cc1cnccc1NC(=O)N1CCC[C@H](c2cc(F)ccc2F)C1`, the “% Inhibition” value was -14% and the Z score was 2.66.
For `CCC(CNS(C)(=O)=O)NC(=O)N1CCCC(C2CCCCC2)C1` (configuration not stated), the “% Inhibition” value was 5% and the Z score was -0.74.
`O=C(NC1CCCC(CO)C1)C(O)C1CCC1` (configuration not stated) was tested, and the “% Inhibition” value was -9% and the Z score was 1.64.
With `c1csc(C2CCCN2c2nnc(C3CCOC3)n2CC2CCCO2)c1` (configuration not stated) the “% Inhibition” value was -3% and the Z score was 0.43.
`COc1ccccc1CC(=O)NCc1nnc(N)s1` was tested, and the “% Inhibition” value was 5% and the Z score was -0.69.
With `CC(C)=CC1C(C(=O)N2CC(O)C2)C1(C)C` (configuration not stated) the “% Inhibition” value was -9% and the Z score was 1.63.
`O=C(c1ccc(Cl)cn1)N1CCC(Cn2ccnc2)CC1` was tested, and the “% Inhibition” value was -18% and the Z score was 1.77.
`CCn1ncc(Br)c1C(=O)Nc1cccnc1N(C)C` was tested, and the “% Inhibition” value was -4% and the Z score was 0.76.
For `O=C(Nc1scnc1-c1ccccc1)N[C@H]1CCCn2ncnc21`, the “% Inhibition” value was -4% and the Z score was 0.46.
With `COc1cc2c(cc1OC)CN(C(=O)CNC(=O)c1cccnc1)CC2` the “% Inhibition” value was 12% and the Z score was -1.95.
`CO[C@H]1CCOC[C@@H]1NC(=O)c1ccnn1C(C)C` was tested, and the “% Inhibition” value was 0% and the Z score was -0.03.
With `CCN(CC)Cc1cc(C(=O)NCc2csc(C)n2)c(C)o1` the “% Inhibition” value was -1% and the Z score was 0.16.
For `O=S(=O)(c1ccc2c(c1)OCCO2)N1CCN2CCCC[C@H]2C1`, the “% Inhibition” value was 12% and the Z score was -1.14.
For `NC(=O)c1ccc(-c2ccc(C(=O)N[C@H]3CC[C@H](O)CC3)cc2)o1`, the “% Inhibition” value was 4% and the Z score was -0.76.
For `CNC(=O)CC(NC(=O)[C@H](C)NS(=O)(=O)c1ccc(Cl)cc1)c1ccccc1` (some centres not stated), the “% Inhibition” value was -4% and the Z score was 0.6.
`CCN(Cc1nc2ccccc2c(=O)[nH]1)C(=O)[C@H]1NCC12CCCC2` was tested, and the “% Inhibition” value was -1% and the Z score was 0.12.

— ChEMBL document CHEMBL4888484, “Replenishing the malaria drug discovery pipeline: Screening and hit evaluation of the MMV Hit Generation Library 1 (HGL1) against asexual blood stage Plasmodium falciparum ,using a nano luciferase reporter read-out” (2022)
